{"source": "PubChem BioAssay AID1768", "about": "(National Center for Advancing Translational Sciences (NCATS), 2009)", "note": "Values joined by “and” are separate entries in the source; they are usually repeats but may differ in a detail not shown here. Identical values can stand only once. The whole screen tested about 270,000 compounds, of which about 620 (0.23%) were called active. The shares of active, inactive and inconclusive entries below differ from those in the screen. Calls come from the whole dose curve; as a rule, active = well fitted inhibition curve with a large enough effect in the polarisation, with a control signal flat (not every such curve was filed as active); inconclusive = small, poorly fitted or top-dose-only effect, or effect the other way, or a change in a side signal; inactive = no such curve, though single readings can be large or run the other way; the % refers to the polarisation. Potencies beside an inconclusive call are fits to weak or partial responses and may not hold up. “Side channel” marks fits to a control or component signal instead of the main read-out. Potency is the fitted concentration of half-maximal effect; tags give direction and shape of the fitted curve or compound fluorescence and quenching."}
{"biological_target": "Menin (Homo sapiens) (UniProt O00255)", "sequence (O00255 whole entry, looked up)": "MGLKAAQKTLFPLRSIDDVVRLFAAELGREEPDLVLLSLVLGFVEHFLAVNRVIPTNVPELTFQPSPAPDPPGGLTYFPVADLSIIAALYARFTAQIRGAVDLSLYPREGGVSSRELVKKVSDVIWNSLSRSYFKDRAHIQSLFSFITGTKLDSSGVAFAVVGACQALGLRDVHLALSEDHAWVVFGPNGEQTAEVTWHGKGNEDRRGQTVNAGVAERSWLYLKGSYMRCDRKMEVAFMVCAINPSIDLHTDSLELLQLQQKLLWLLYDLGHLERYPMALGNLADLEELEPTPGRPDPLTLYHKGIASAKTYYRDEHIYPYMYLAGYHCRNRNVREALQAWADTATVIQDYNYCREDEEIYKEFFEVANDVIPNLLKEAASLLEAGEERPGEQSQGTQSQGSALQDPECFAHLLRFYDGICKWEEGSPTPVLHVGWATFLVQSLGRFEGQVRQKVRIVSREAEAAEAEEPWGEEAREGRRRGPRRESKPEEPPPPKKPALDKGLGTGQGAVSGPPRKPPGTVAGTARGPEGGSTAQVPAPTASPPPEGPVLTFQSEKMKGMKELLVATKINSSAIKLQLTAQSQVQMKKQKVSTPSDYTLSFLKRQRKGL", "test": "qHTS Assay for Inhibitors Targeting the Menin-MLL Interaction in MLL Related Leukemias: Competition With Texas Red Labeled MLL-derived Mutant Peptide; for FP activity change, negative = inhibition: % of control where 0% means no effect", "details": "fluorescence polarization; FP activity change, negative = inhibition: at 61.6 µM (top of the series)"}
{"smiles": "COc1ccc(NC(=O)c2nnn(CC(=O)Nc3ccc4c(c3)OCO4)c2N)c(OC)c1", "Potency": "inconclusive: 11.2 µM [quencher, side channel, partial curve]"}
{"smiles": "COc1ccc(C)cc1N(CC(=O)Nc1cccc(N(C)S(C)(=O)=O)c1)S(C)(=O)=O", "Potency": "inconclusive: 7.08 µM [inhibitor, single point]"}
{"smiles": "COc1cc2nc(NC(=O)c3ccc(F)cc3Cl)sc(=O)c2cc1OC", "Potency": "inconclusive: 28.2 µM [quencher, side channel, partial curve]"}
{"smiles": "CCn1c(SC(C)C(=O)O)nnc1-c1cccnc1", "note": "(stereo not drawn)", "Potency": "inconclusive: 39.8 µM [quencher, side channel, single point]"}
{"smiles": "Cc1ccc(S(=O)(=O)/N=C2\\C=C(Nc3cccc(C(=O)O)c3)C(=O)c3ccccc32)c(C)c1", "Potency": "inconclusive: 10 µM [quencher, side channel, partial curve]"}
{"smiles": "CCC(=O)Nc1cccc(-c2csc(-c3ccccc3)n2)c1", "Potency": "inconclusive: 31.6 µM [quencher, side channel, single point]"}
{"smiles": "CC12CC3(O)OC(O1)C1(COC(=O)c4ccccc4)[C@@H]3CC21O[C@@H]1O[C@H](CO)[C@@H](O)[C@H](O)[C@H]1O", "Potency": "inconclusive: 39.8 µM [inhibitor, single point]"}
{"smiles": "CC(C)N1CCC2(CC1)C(C#N)=C(N)NC(S)=C2C#N", "FP activity change, negative = inhibition": "inactive: 15.1%"}
{"smiles": "COCCNC(=O)C1(C(F)(F)F)C/C(=C\\Cc2ccccc2)CCCO1", "note": "(stereo not drawn)", "FP activity change, negative = inhibition": "inactive: -15.8%"}
{"smiles": "Cc1ccc2nc(CCc3nc4ccc(C)cc4[nH]3)[nH]c2c1", "FP activity change, negative = inhibition": "inactive: 2.12%"}
{"smiles": "Oc1c(I)cc(Cl)c2cccnc12", "Potency": "inconclusive: 31.6 µM [quencher, side channel, partial curve] and inconclusive: 31.6 µM [quencher, side channel, single point]"}
{"smiles": "Cc1cc(O)c(/C=N/c2ccccn2)c(=O)o1", "Potency": "inconclusive: 28.2 µM [fluorescent, side channel, single point]"}
{"smiles": "C=C(C)COc1ccc(-c2[nH]ncc2-c2ccc(Br)cc2)c(O)c1", "Potency": "inconclusive: 8.91 µM [quencher, side channel, partial curve]"}
{"smiles": "CC(C)c1ccc(-c2csc3ncnc(N4CCN(C)CC4)c23)cc1", "Potency": "inconclusive: 7.08 µM [fluorescent, side channel, partial curve]"}
{"smiles": "O=C(CCCOc1ccc(Cl)cc1)N1CCCCCC1", "Potency": "inconclusive: 39.8 µM [inhibitor, single point]"}
{"smiles": "CCOc1cc(/C=C(\\C#N)c2nc(-c3cccs3)c(NC(C)=O)s2)ccc1O", "Potency": "inconclusive: 17.8 µM [quencher, side channel, partial curve]"}
{"smiles": "COc1ccc(C/C(N)=N/OC(=O)c2cccs2)cc1", "Potency": "inconclusive: 22.4 µM [inhibitor, single point]"}
{"smiles": "Cc1[nH]c2ccccc2c1SCc1ccccc1", "Potency": "inconclusive: 14.1 µM [quencher, side channel, partial curve]"}
{"smiles": "O=C(NCC1CCCO1)C(c1cccs1)N(Cc1ccccc1Cl)C(=O)c1ccc(-c2ccccc2)[nH]1", "note": "(stereo not drawn)", "FP activity change, negative = inhibition": "inactive: -6.61%"}
{"smiles": "CC(C)N1C(=O)N(c2ccc(Cl)cc2)C(C)(O)CC1(C)C", "note": "(stereo not drawn)", "Potency": "inconclusive: 2.24 µM [fluorescent, side channel, partial curve]"}
{"smiles": "CCCn1c(NCc2ccccc2NS(=O)(=O)c2ccc(C)cc2)nc2ccccc21", "Potency": "inconclusive: 39.8 µM [inhibitor, single point]"}
{"smiles": "Cc1cc(C(F)(F)F)n(-c2nc(C(=O)N/N=C/c3ccc(F)cc3)cs2)n1", "Potency": "inconclusive: 3.98 µM [inhibitor, partial curve]"}
{"smiles": "COc1ncc2nc(-c3cc(F)cc(F)c3)c(=O)n(CCc3ccccc3)c2n1", "Potency": "inconclusive: 39.8 µM [quencher, side channel, single point]"}
{"smiles": "CC(=O)Oc1ccc(C2=NN(c3ccccc3)C(c3ccccc3)C2)cc1", "note": "(stereo not drawn)", "Potency": "inconclusive: 11.2 µM [quencher, side channel, partial curve]"}
{"smiles": "O=CN(/C=C1\\Sc2ccccc2C1=O)Cc1ccccc1", "Potency": "inconclusive: 39.8 µM [fluorescent, side channel, single point]"}
{"smiles": "Cc1cc(C)n2nc(SCc3nnc(SCc4ccccc4Cl)s3)nc2n1", "Potency": "inconclusive: 28.2 µM [fluorescent, side channel, single point]"}
{"smiles": "COc1ccc(-c2nnc(NC(=O)CSc3ccc(C)cc3)s2)cc1OC", "FP activity change, negative = inhibition": "inactive: 3.57%"}
{"smiles": "CCOc1cc(/C=C/c2ccc3cccc([N+](=O)[O-])c3n2)cc(Cl)c1O", "Potency": "inconclusive: 15.8 µM [quencher, side channel, partial curve]"}
{"smiles": "COc1ccc2[nH]c(C(=O)O)c(NS(=O)(=O)c3ccc(C)c(C)c3)c2c1", "Potency": "inconclusive: 17.8 µM [quencher, side channel, partial curve]"}
{"smiles": "COc1ccc(C(=O)CSc2nnc(-c3ccco3)n2CC2CCCO2)cc1", "note": "(stereo not drawn)", "Potency": "inconclusive: 7.08 µM [fluorescent, side channel, partial curve]"}
{"smiles": "Cn1ncc2c(=O)n(/N=C/c3ccccc3)cnc21", "Potency": "inconclusive: 12.6 µM [inhibitor, partial curve]"}
{"smiles": "Cc1[nH]c2ccccc2c1C(=O)CSc1nc2ncc(Cl)cc2[nH]1", "Potency": "inconclusive: 8.91 µM [inhibitor, full curve]"}
{"smiles": "O=C(Nc1ccccc1)Nc1nnc(Cc2ccc([N+](=O)[O-])cc2)s1", "Potency": "inconclusive: 7.94 µM [quencher, side channel, full curve]"}
{"smiles": "CC(C)C(CCNC(=O)CC(Cc1ccccc1)c1ccco1)c1ccco1", "note": "(stereo not drawn)", "Potency": "inconclusive: 17.8 µM [fluorescent, side channel, partial curve]"}
{"smiles": "Cc1ccc2nc(N3CCN(CCO)CC3)nc(-c3ccccc3)c2c1", "Potency": "inconclusive: 25.1 µM [fluorescent, side channel, partial curve]"}
{"smiles": "COc1ccc(/C=C/C(=O)NC(=S)NNC(=O)Cc2cccs2)cc1OC", "Potency": "inconclusive: 25.1 µM [quencher, side channel, single point]"}
{"smiles": "COc1ccc(Cl)cc1NC(=O)CN1CCN(S(=O)(=O)c2ccc(F)cc2)CC1", "Potency": "inconclusive: 31.6 µM [fluorescent, side channel, single point]"}
{"smiles": "Cc1cccc(N=c2c([N+](=O)[O-])nn(-c3ccc(Cl)cc3)n2O)c1", "Potency": "inconclusive: 39.8 µM [quencher, side channel, single point]"}
{"smiles": "Cc1cc(NC(=O)Cc2cccs2)no1", "Potency": "inconclusive: 25.1 µM [quencher, side channel, partial curve]"}
{"smiles": "CC1CCC(C(C)C)C(OCC(O)CNC(C)c2ccccc2)C1", "note": "(stereo not drawn)", "Potency": "inconclusive: 6.31 µM [fluorescent, side channel, partial curve]"}
{"smiles": "CC(=O)N1CCN(C(=S)c2cccc([N+](=O)[O-])c2)CC1", "FP activity change, negative = inhibition": "inactive: 0.97%"}
{"smiles": "O=C(N/N=C/c1cc([N+](=O)[O-])ccc1Cl)c1ccc2nc[nH]c2c1", "Potency": "inconclusive: 20 µM [quencher, side channel, partial curve]"}
{"smiles": "COc1cc(C(=S)N2CCCC2)cc(OC)c1OC", "Potency": "inconclusive: 11.2 µM [inhibitor, partial curve, poor fit]"}
{"smiles": "Cc1ccc(Oc2ccc(Oc3ccc(C)cc3)nn2)cc1", "Potency": "inconclusive: 17.8 µM [fluorescent, side channel, partial curve]"}
{"smiles": "N#C/C(=C/c1ccc(N2CCOCC2)o1)c1ccc(Br)cc1", "Potency": "inconclusive: 12.6 µM [quencher, side channel, partial curve]"}
{"smiles": "CC1(C)CC(=O)C2=C(C1)Nc1ccccc1N=C2", "Potency": "inconclusive: 39.8 µM [inhibitor, single point]"}
{"smiles": "CN(CC(=O)Nc1ccc(S(N)(=O)=O)cc1)C1CCCCC1", "FP activity change, negative = inhibition": "inactive: 0.225%"}
{"smiles": "CCOC(=O)N1CCN(C(=O)c2oc3ccc(S(=O)(=O)N4CCCCCC4)cc3c2C)CC1", "Potency": "inconclusive: 3.98 µM [inhibitor, partial curve]"}
{"smiles": "Cc1[nH]c2ccccc2c1/C=N/Nc1nncn1N", "Potency": "inconclusive: 28.2 µM [quencher, side channel, single point]"}
{"smiles": "COc1cc(OC)cc(C(=O)NC2CCCCCCC2)c1", "Potency": "inconclusive: 17.8 µM [inhibitor, partial curve]"}
{"smiles": "CSc1nnc(-c2sc3cc(C(F)(F)F)cnc3c2-c2ccccc2)n1C", "Potency": "inconclusive: 8.91 µM [fluorescent, side channel, full curve]"}
{"smiles": "Cc1ccc(C)c(-c2ccc(C(=O)O)o2)c1", "Potency": "inconclusive: 100 µM [quencher, side channel, single point]"}
{"smiles": "CCOc1ccccc1Oc1cn[nH]c1-c1ccc(O)cc1O", "Potency": "inconclusive: 22.4 µM [quencher, side channel, single point]"}
{"smiles": "COc1ccc(C(=O)NCCN2C(=O)S/C(=C\\c3cccnc3)C2=O)c(OC)c1OC", "Potency": "inconclusive: 3.55 µM [fluorescent, side channel, single point]"}
{"smiles": "COCCNC(=O)CCc1nc2cccnc2n1Cc1ccc(OC)cc1", "FP activity change, negative = inhibition": "inactive: -0.416%"}
{"smiles": "Cc1[nH]n(C(N)=S)c(=O)c1N=Nc1ccc(S(=O)(=O)N2CCCC2)cc1", "Potency": "inconclusive: 15.8 µM [quencher, side channel, partial curve]"}
{"smiles": "Cc1ccc(S(=O)(=O)c2c(N)n(/N=C/c3ccco3)c3nc4ccccc4nc23)cc1", "Potency": "inconclusive: 11.2 µM [quencher, side channel, partial curve]"}
{"smiles": "O=C(COc1ccc([N+](=O)[O-])cc1)N(Cc1cccs1)C1CCS(=O)(=O)C1", "note": "(stereo not drawn)", "Potency": "inconclusive: 17.8 µM [quencher, side channel, single point]"}
